Our source for the binding signal values is PMC12136788.

Some of the results follow.

First the molecules themselves.
T1: UNK ZnF1-3 (human, UniProt Q9C0B0 31-174)
T1 sequence: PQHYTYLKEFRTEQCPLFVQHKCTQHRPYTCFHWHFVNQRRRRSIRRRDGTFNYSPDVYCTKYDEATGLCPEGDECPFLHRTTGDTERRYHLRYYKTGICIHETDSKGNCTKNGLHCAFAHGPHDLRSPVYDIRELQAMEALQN

B1: chr1:163112212:163112213:-_ENSG00000143248_ENST00000313961|hu_hu|hu_hu_hu_mus_False|28_108 (ssRNA)
RNA: GGGAGUUCUACAGUCCGACGAUCUUUAUUUAUCCAGAAGAGUGAGUUACAUACUAGGCAAAGUAUUGGAUACAAUAAUCAGGAAACAAACACUAUUGGUCCAGAAUUUAAAAUAUAAUGAGCGAAGUGCUGGCACAGGACUUACAACAGAGGAUUGAGCAUCA
B2: chr7:151048522:151048523:+_ENSG00000013374_ENST00000566856|hu_mus|hu_hu_hu_mus_True|48_68 (ssRNA)
RNA: GGGAGUUCUACAGUCCGACGAUCCUGUUUCUUAUUUAUUACGAUCUUGAUGUAAUUUUCUUGAAAUCCAAAGGUUUCAGCUAUUUGGGACCUCAGUUCUCUACCAGUGACAUGCAAGCGGGUCUCCAACAAGCUUUUCUUAUCCAACAGAGGAUUGAGCAUCA
B3: chr3:139075817:139075818:+_ENSG00000175110_ENST00000310776|hu_hu|motif|central (ssRNA)
RNA: GGGAGUUCUACAGUCCGACGAUCUUAGGAAGCUGCAGAAUGGCGACUGAGUGCUUCUUGAUAAGUCUGCAGUGUUAGUUCGGUAUAGGCUCCCUUCUGUGCUUCUGUUUUUGCAAAGACCUUGAUUAAAUUUAUUCCCUCAGCCAACAGAGGAUUGAGCAUCA
B4: chrX:98862621:98862622:+_ENSMUSG00000034160_ENSMUST00000044475|mus_hu|mus_mus_mus_hu_False|38_68 (ssRNA)
RNA: GGGAGUUCUACAGUCCGACGAUCCUGCAUCUCCUUUAGAGUGUUUCCCAUAUUAGAGUAGGCAUCAGCAAAUGUAGGACUGAUUCGAAUAGCCUCCUUAUAGUGCAUCAGAGCUUCCUGCAGUUUUCCCUGCUGCUGCAGUACCAACAGAGGAUUGAGCAUCA
B5: chr7:92085846:92085847:+_ENSG00000157259_ENST00000287957|hu_hu|motif|central (ssRNA)
RNA: GGGAGUUCUACAGUCCGACGAUCGGGGCUACAGGCGUGAGCCACCACACCAGGCCUGGAAACCCAGUUUUAAUUUGUGAACGGCAAAUGGUUGGCAACUGAUUCCUUAAUUGUUAUUGCAGGAGUAGGCCCAACAUGAGUCCACAACAGAGGAUUGAGCAUCA
B6: chr5:128448638:128448639:+_ENSG00000066583_ENST00000173527|hu_hu|motif|central (ssRNA)
RNA: GGGAGUUCUACAGUCCGACGAUCAGCACUCGCCUUAAUUAGAUUCUGAAUUUCCUUGAAUUUUGGAUGGUCCUUAUCAGCGGCCAGCUGAAGCAGAACAGCCUCACUCGUGGUCACUAUGAUCCCGGUUCGAGCGAGACGCUCCAACAGAGGAUUGAGCAUCA

The experiment concerns the target T1, UNK ZnF1-3. Briefly: nsRBNS (natural sequence RNA bind-n-seq); RBNS binding buffer (assumed for nsRBNS): 25 mM Tris pH 7.5, 150 mM KCl, 3 mM MgCl2, 0.01% Triton X-100, 500 ug/ml BSA, 20 U/ml SUPERase-In, 4 C; UNK is unkempt and MSI1 is Musashi-1; names of the RNAs are library labels; protein concentration not given here; high values mean tight binding.
For the molecule B1, the binding signal turned out to be 2.74 enrichment R.
In turn, B2 showed a binding signal of 0.581 enrichment R.
With B3 the figure was 0.849 enrichment R; with B4, 1.2 enrichment R.
With B5 the figure was 1.67 enrichment R.
The figure for B6 is 0.665 enrichment R.
